Experimental data as given in publication PMC4336329 (PLoS ONE, 2015).
Hit rate of the full screen: of about 310,000 compounds, about 14,000 (4.5%) showed an effect of 50% or more. The effect is printed as a negative number. The list shows a part of the results.
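Further: peak tail current of the secondary pulse compared with the same well before compound.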

These compounds were tested against human ether-à-go-go-related gene (hERG) potassium channel (human, UniProt Q12809) (assay: primary screen, population patch clamp on CHO cells stably expressing hERG).
Chain of human ether-à-go-go-related gene (hERG) potassium channel (Q12809 whole entry, looked up): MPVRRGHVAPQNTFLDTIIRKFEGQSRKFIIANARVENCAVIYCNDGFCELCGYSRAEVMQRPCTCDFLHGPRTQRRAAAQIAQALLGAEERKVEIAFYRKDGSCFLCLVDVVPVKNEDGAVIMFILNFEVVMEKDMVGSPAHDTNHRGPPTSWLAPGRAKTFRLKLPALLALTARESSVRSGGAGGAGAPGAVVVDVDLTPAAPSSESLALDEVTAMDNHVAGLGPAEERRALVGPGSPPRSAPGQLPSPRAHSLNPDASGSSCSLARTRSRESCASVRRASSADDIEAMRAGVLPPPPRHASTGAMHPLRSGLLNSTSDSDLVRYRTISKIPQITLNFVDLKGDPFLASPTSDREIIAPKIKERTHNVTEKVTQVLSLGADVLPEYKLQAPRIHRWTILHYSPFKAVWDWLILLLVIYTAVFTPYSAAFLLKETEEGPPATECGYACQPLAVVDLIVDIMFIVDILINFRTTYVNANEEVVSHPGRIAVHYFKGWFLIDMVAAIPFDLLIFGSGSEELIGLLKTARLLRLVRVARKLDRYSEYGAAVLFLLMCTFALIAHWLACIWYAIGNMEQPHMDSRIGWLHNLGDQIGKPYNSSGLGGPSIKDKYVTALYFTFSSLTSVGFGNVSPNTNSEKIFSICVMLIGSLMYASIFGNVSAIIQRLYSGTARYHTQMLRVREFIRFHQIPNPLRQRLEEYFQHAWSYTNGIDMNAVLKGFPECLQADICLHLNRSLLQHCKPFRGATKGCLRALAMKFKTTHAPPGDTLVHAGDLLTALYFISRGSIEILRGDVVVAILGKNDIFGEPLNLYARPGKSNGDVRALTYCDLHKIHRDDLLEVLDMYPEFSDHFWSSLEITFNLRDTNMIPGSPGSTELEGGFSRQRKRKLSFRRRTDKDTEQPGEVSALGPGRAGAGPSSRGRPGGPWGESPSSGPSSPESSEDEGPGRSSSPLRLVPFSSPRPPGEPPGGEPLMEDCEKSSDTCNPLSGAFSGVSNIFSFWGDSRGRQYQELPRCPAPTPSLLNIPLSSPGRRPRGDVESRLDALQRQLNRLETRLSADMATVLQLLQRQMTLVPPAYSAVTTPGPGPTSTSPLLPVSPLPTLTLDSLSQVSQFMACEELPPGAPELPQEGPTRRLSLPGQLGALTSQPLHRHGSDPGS
For `COc1ccc(CNC(=O)CCCn2c(SCC#N)nc3cc4c(cc3c2=O)OCO4)cc1`, the “hERG current change (%, negative = inhibition) at 10uM” value was 7.74%.
With `Cc1cccc(C(=O)OCC(=O)NNC(=O)c2cccs2)c1O` the “hERG current change (%, negative = inhibition) at 10uM” value was 10.9%.
`CCN(CC)c1ccc(NC2CC(=O)N(CCc3ccc(OC)cc3)C2=O)cc1` (centres unmarked) was tested, and the “hERG current change (%, negative = inhibition) at 10uM” value was -11.4%.
`O=C(NC1CCN(C(=S)NCc2ccco2)CC1)C12CC3CC(CC(C3)C1)C2` was tested, and the “hERG current change (%, negative = inhibition) at 10uM” value was 4.26%.
With `Cn1cccc1CC(=O)NNC(=O)Nc1ccc(Cl)cc1` the “hERG current change (%, negative = inhibition) at 10uM” value was 15.2%.
For `Cc1nc(N)c(C#N)c(-c2ccccc2)c1C`, the “hERG current change (%, negative = inhibition) at 10uM” value was -10.4%.
With `Cc1nc(C)c(C(=O)N(c2ccc(F)cc2)C(C(=O)NCC2CCCO2)c2ccccc2)s1` (centres unmarked) the “hERG current change (%, negative = inhibition) at 10uM” value was -6.28%.
In the case of `CC(O)c1nc2c(c(=O)n(C)c(=O)n2C)n1C` (centres unmarked), the “hERG current change (%, negative = inhibition) at 10uM” value is reported as -3.51%.
`OCC1(Cc2ccccc2)CCN(C2CCN(c3ccccc3F)CC2)CC1` was tested, and the “hERG current change (%, negative = inhibition) at 10uM” value was -68.8%.
`Cc1ccccc1-c1cnn(-c2cccc([N+](=O)[O-])c2)c1N` was tested, and the “hERG current change (%, negative = inhibition) at 10uM” value was -56.7%.
`CSc1nnc(Cn2c(=O)sc3ccccc32)n1C` was tested, and the “hERG current change (%, negative = inhibition) at 10uM” value was 11.6%.
In the case of `Cc1ccc(-n2nc3c(c2NC(=O)C2CC2)CS(=O)(=O)C3)cc1`, the “hERG current change (%, negative = inhibition) at 10uM” value is reported as -9.44%.
In the case of `O=C1N(Cc2cccnc2)C[C@@H]2C[C@@H](c3ccc(-c4ccccc4)cc3)N3CCC[C@@]123`, the “hERG current change (%, negative = inhibition) at 10uM” value is reported as -71.3%.
With `COC(=O)c1cc(S(=O)(=O)N2CCN(c3cccc(OC)c3)CC2)cn1C` the “hERG current change (%, negative = inhibition) at 10uM” value was 3.25%.
With `CCOC(=O)C1CCN(C(=O)CCNS(=O)(=O)c2ccc(C)cc2)CC1` the “hERG current change (%, negative = inhibition) at 10uM” value was -18.7%.
For `c1ccc(-c2cc3c(N4CCN(c5ccccc5)CC4)ncnc3s2)cc1`, the “hERG current change (%, negative = inhibition) at 10uM” value was 6.09%.
In the case of `CC1CCCCN1C(=O)Cn1cnc2c1c(=O)n(C)c(=O)n2C` (centres unmarked), the “hERG current change (%, negative = inhibition) at 10uM” value is reported as 16.2%.
For `CC(CC(=O)NC(C)c1ccc2c(c1)OCCO2)c1ccccc1` (centres unmarked), the “hERG current change (%, negative = inhibition) at 10uM” value was 15.6%.
In the case of `O=C(CSc1nc(O)c(C2CCCCC2)c(=O)[nH]1)Nc1ccc(Cl)cc1`, the “hERG current change (%, negative = inhibition) at 10uM” value is reported as 9.72%.
In the case of `COC(=O)c1ccccc1C(=O)N1CCCC(CCC(=O)NCc2ccc(F)c(F)c2)C1` (centres unmarked), the “hERG current change (%, negative = inhibition) at 10uM” value is reported as -10.1%.
`CN(Cc1ccccc1)c1ncnc(N)c1[N+](=O)[O-]` was tested, and the “hERG current change (%, negative = inhibition) at 10uM” value was -4.37%.
With `C=CCn1c(-c2ccc(Cl)cc2)cnc1SC(C)C(N)=O` (centres unmarked) the “hERG current change (%, negative = inhibition) at 10uM” value was 24.7%.
With `CC1CN=C(Nc2ccc(F)c(Cl)c2)S1` (centres unmarked) the “hERG current change (%, negative = inhibition) at 10uM” value was 2.08%.
In the case of `Cc1ccc(S(=O)(=O)N2CCOCC2)cc1NC(=O)COC(=O)c1ccccc1OCc1c(C)noc1C`, the “hERG current change (%, negative = inhibition) at 10uM” value is reported as -33.5%.
With `O=C(OCCCOC(=O)c1cc[n+]([O-])cc1)c1cc[n+]([O-])cc1` the “hERG current change (%, negative = inhibition) at 10uM” value was 3.82%.
In the case of `CC1CCCC(C)N1S(=O)(=O)c1ccc(S(=O)(=O)NCc2ccccc2)cc1` (centres unmarked), the “hERG current change (%, negative = inhibition) at 10uM” value is reported as 8.78%.
For `COc1cc(-c2nnc3n2CCCCC3)cc(OC)c1OC`, the “hERG current change (%, negative = inhibition) at 10uM” value was 21.4%.
In the case of `CC(C)(C)OC(=O)N[C@@H](Cc1ccccc1)C(=O)N1CCC(C(=O)O)CC1`, the “hERG current change (%, negative = inhibition) at 10uM” value is reported as -0.864%.
In the case of `Cc1cc(Cl)c2oc(C(=O)NCCN3CCCCC3CO)c(C)c2c1` (centres unmarked), the “hERG current change (%, negative = inhibition) at 10uM” value is reported as -42.2%.
With `CC(C)Cc1nn2c(=O)cc(O)nc2s1` the “hERG current change (%, negative = inhibition) at 10uM” value was 11.3%.
`Fc1ccc(Nc2ccc3ccccc3n2)c(F)c1` was tested, and the “hERG current change (%, negative = inhibition) at 10uM” value was 3.37%.
For `CCC1OC(c2ccc([N+](=O)[O-])cc2)=Nc2ccccc21` (centres unmarked), the “hERG current change (%, negative = inhibition) at 10uM” value was 4.03%.
`c1ccc(-c2ccc(C(c3ccccc3)n3ccnc3)cc2)cc1` (centres unmarked) was tested, and the “hERG current change (%, negative = inhibition) at 10uM” value was 3.15%.
`CCNC(=S)N(CCc1c(C)[nH]c2ccc(F)cc12)Cc1cccnc1` was tested, and the “hERG current change (%, negative = inhibition) at 10uM” value was -26.5%.
For `S=C(Nc1ccccc1Oc1ccccc1)Nc1cccc(Cl)c1Cl`, the “hERG current change (%, negative = inhibition) at 10uM” value was 8.66%.
In the case of `COCCN1C(=O)N(c2ccc(OC)cc2)C(=O)C1CC(=O)Nc1cccc(F)c1` (centres unmarked), the “hERG current change (%, negative = inhibition) at 10uM” value is reported as 1.87%.
In the case of `Nc1cccc(-c2cc3ccccc3oc2=O)c1`, the “hERG current change (%, negative = inhibition) at 10uM” value is reported as 6.38%.
`COc1cccc(CN2CCNC(=O)C2CC(=O)N(C)Cc2nc(C)cs2)c1OC` (centres unmarked) was tested, and the “hERG current change (%, negative = inhibition) at 10uM” value was -1.63%.
For `NNC(=O)c1ccccc1OCCOc1ccccc1`, the “hERG current change (%, negative = inhibition) at 10uM” value was 8.09%.
With `Cn1c(Cn2c(=O)sc3ccccc32)nnc1SCc1ccccc1F` the “hERG current change (%, negative = inhibition) at 10uM” value was -19.9%.
`CCCCn1c(SCC(=O)NC2CCS(=O)(=O)C2)nc2cc(S(N)(=O)=O)ccc21` (centres unmarked) was tested, and the “hERG current change (%, negative = inhibition) at 10uM” value was -1.95%.
With `O=c1c2ccccc2[nH]c(=S)n1-c1ccc(Br)cc1` the “hERG current change (%, negative = inhibition) at 10uM” value was 23.8%.
For `O=C(Nc1cccc(Cl)c1)NC1CC2CCC(C1)N2Cc1cccs1` (centres unmarked), the “hERG current change (%, negative = inhibition) at 10uM” value was -28.4%.
For `O=C(OCn1cncn1)c1ccc(Cl)cc1Cl`, the “hERG current change (%, negative = inhibition) at 10uM” value was -8.6%.
`CN(C)C1(CNC(=O)C2CCN(S(=O)(=O)c3c(Cl)cccc3Cl)CC2)CCCCC1` was tested, and the “hERG current change (%, negative = inhibition) at 10uM” value was -67.5%.
With `NS(=O)(=O)c1ccc(S(=O)(=O)N(Cc2ccccc2F)CC2CCCO2)cc1` (centres unmarked) the “hERG current change (%, negative = inhibition) at 10uM” value was -11.1%.
`CC(C)(C)n1nnnc1C(c1cccnc1)N(Cc1ccccc1)Cc1ccco1` (centres unmarked) was tested, and the “hERG current change (%, negative = inhibition) at 10uM” value was -35.9%.
With `O=C(Nc1ccc(Cl)cc1)Nc1cc(S(=O)(=O)N2CCOCC2)ccc1N1CCCC1` the “hERG current change (%, negative = inhibition) at 10uM” value was -54.5%.
In the case of `N#CC(C#N)=C/C=C(\Nc1ccc(Cl)cc1)c1ccc(Cl)cc1`, the “hERG current change (%, negative = inhibition) at 10uM” value is reported as -49.4%.
In the case of `COC(=O)C1=C(C(=O)OC)[N+]2=C3N(C(=O)NC2(C)C)[C@H](CO)C[C@@]32c3ccccc3N(Cc3ccccc3)[C@@H]12`, the “hERG current change (%, negative = inhibition) at 10uM” value is reported as -11.2%.
In the case of `CC(=O)N1CCN(c2ccc(N)cc2)CC1`, the “hERG current change (%, negative = inhibition) at 10uM” value is reported as 8.6%.
For `CC(=O)NCCCc1nc2ccccc2n1Cc1ccc(C)cc1`, the “hERG current change (%, negative = inhibition) at 10uM” value was -23.6%.
In the case of `Cc1ccccc1Nc1nnc(SCC(=O)c2ccc(O)cc2O)s1`, the “hERG current change (%, negative = inhibition) at 10uM” value is reported as -6.31%.
`CCCN1CCN(CCCNC(=O)CN2C(=O)c3cccnc3Oc3ccc(C)cc32)CC1` was tested, and the “hERG current change (%, negative = inhibition) at 10uM” value was 3.09%.
For `CCC12CN3CC(CC)(CN(C1)C3c1ccccc1Cl)C2O` (centres unmarked), the “hERG current change (%, negative = inhibition) at 10uM” value was -6.91%.
`O=C(NCc1ccncc1)C(=O)NCC1OCCCN1S(=O)(=O)c1ccc(F)cc1` (centres unmarked) was tested, and the “hERG current change (%, negative = inhibition) at 10uM” value was 13.1%.
